In PubChem BioAssay AID485344 (National Center for Advancing Translational Sciences (NCATS), 2010):
In all, about 340,000 compounds went through this assay and about 6,900 (2%) were called active. Cut-off read from the data, not from the text of the source: active = inhibition above about 30%; inactive = below that, where a call was filed. The list shows a part of the results, in another mix than the full data. The source gives no active or inactive call for entries shown without one.

Biological target: D(2) dopamine receptor (Homo sapiens) (UniProt P14416)
Experiment: HTS Assay for Allosteric Antagonists of the Human D2 Dopamine Receptor: Primary Screen for Antagonists; note: 0% is about no effect
Conditions: HEK293 TREx D2 cells, calcium flux, dopamine EC80; at 10 µM; stronger effect = higher value
How it was run: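 Dopamine at EC80 is the agonist stimulus; test compounds precede it by 180 s. Calcium flux read kinetically in a force-coupled, inducible HEK293 T-REx D2 cell line.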

Sequence of UniProt P14416 (P14416 whole entry, looked up): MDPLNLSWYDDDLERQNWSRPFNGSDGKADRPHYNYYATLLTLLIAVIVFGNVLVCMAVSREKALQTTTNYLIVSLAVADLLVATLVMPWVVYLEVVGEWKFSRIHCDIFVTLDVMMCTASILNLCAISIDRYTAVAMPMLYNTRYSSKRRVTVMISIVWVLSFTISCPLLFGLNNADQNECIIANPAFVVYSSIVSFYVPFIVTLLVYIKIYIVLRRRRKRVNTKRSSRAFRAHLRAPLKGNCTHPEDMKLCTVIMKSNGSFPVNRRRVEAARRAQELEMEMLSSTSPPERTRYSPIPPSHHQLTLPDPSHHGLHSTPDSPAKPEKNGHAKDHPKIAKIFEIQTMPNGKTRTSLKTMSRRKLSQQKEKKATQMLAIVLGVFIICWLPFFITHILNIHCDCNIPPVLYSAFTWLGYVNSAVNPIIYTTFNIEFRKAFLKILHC

SMILES | inhibition
COc1cccc(CNC(=O)CSC2=Nc3ccccc3C3=NC(C(C)C)C(=O)N23)c1 (stereo not given) | 7.38%
Cc1ccc(C)c(N2CCN(CCCNC(=O)c3ccc4nc(N5CCCCC5)sc4c3)CC2)c1 | 4.89%
Cc1ccc(-c2nnc(Nc3ccccc3)c3ccccc23)cc1S(=O)(=O)NCc1nc2ccccc2[nH]1 | -4.27%
CCOC(=O)COc1ccc([N+](=O)[O-])cc1-c1ccnc2cc(-c3ccc(C)cc3)nn12 | -18.4%
Cc1cccc(N2CCN(C(=O)CCS(=O)(=O)c3ccc4c(c3)oc(=O)n4C)CC2)c1C | 8.69%
COc1ccc(C(=O)N(c2ccc(OC)cc2)S(=O)(=O)c2ccc3c(c2)n(C)c(=O)n3C)cc1 | 0.806%
CC(=O)c1cccc(N(CC(=O)Nc2ccccc2F)S(C)(=O)=O)c1 | active: 46.2%
CCOc1ccc(-c2cc(C)n3nc(C(=O)Nc4ccc(C)c(C)c4)cc3n2)cc1 | 25.6%
CCc1ccc(N2CC(C)Cn3c2nc2c3c(=O)n(CC(=O)O)c(=O)n2C)cc1 (stereo not given) | 14.8%
CCc1nnc(SCC(=O)Nc2ccc(OC)c(OC)c2)c2cc3occc3n12 | 10.8%
CC(Oc1ccccc1)C(=O)Nc1ccccc1C(=O)OCc1cc(=O)n2nc(C3CC3)sc2n1 (stereo not given) | 4.08%
COC(=O)Cc1c(C)nc2nc(NCc3ccc(Br)cc3)[nH]n2c1=O | -6.49%
CCOC(=O)CN(Cc1ccccc1)C(C(=O)NC1CCCCC1)c1ccccc1 (stereo not given) | 4.29%
Cc1ccccc1OCc1nnc(SCc2cc(=O)c3cc(F)ccc3[nH]2)n1C | 1.6%
N#C/C(=C\c1cccc(F)c1)c1nc(-c2cc3ccccc3oc2=O)cs1 | 0.715%
Cc1ccc2c(c1)c1c(c(=O)n(Cc3ccccc3)c(=O)n1Cc1cccc(F)c1)n2C | -0.455%
COc1ccc(-c2ccc(CCC(=O)O)n2-c2ccccc2C(F)(F)F)cc1 | 4.35%
COc1ccc(-c2nc3ccccc3o2)cc1NC(=O)c1cc([N+](=O)[O-])ccc1N1CCOCC1 | -27.2%
CCC1CN(CC(=O)NCc2cccc(Br)c2)c2ccccc2S1 (stereo not given) | 4%
c1ccc2c(c1)nc1n2CC2CON(C3CCCCC3)C12 (stereo not given) | active: 37%
COc1ccc(CNC(=O)C2CCN(S(=O)(=O)N3CCC(C)CC3)CC2)c(OC)c1 | 2.34%
Cc1ccc(NS(=O)(=O)c2cn(C)c(C)n2)c(Br)c1 | 0.694%
Cc1cccc(CNC(=O)c2ccc(Cn3c(SCc4cccc(F)c4)nc4cccnc43)cc2)c1 | -9.25%
COc1cc(CN(C(=O)c2ccc(C)cc2)C2CCS(=O)(=O)C2)cc(OC)c1OC (stereo not given) | 14.8%

SMILES | inhibition
CCCSc1ncc(Cl)c(C(=O)Nc2ccc(S(=O)(=O)N3CCCCC3C)cc2)n1 (stereo not given) | 13.1%
COc1cccc(NC(=O)C2CC(=O)N(c3ccc(Br)cc3)C2)c1 (stereo not given) | -3.14%
COc1ccc(NC(=O)CCn2cnnn2)cc1 | 7.48%
CCOc1ccc(-n2cc(-c3ccccc3)c3c(NCc4ccccc4)ncnc32)cc1 | -9.87%
COC(=O)Cc1c(C)c2ccc3c(c2oc1=O)CN(Cc1ccc(Cl)cc1)CO3 | 8.14%
COCCn1c(SCc2ccccc2F)nc2c([nH]c3ccccc32)c1=O | 8.86%
Cc1ccc(-n2c(=O)c3ccc(C(=O)NCc4ccccc4Cl)cc3n(Cc3cccc(F)c3)c2=O)cc1 | 1.79%
Cc1ccc(CNC(=O)C2CCCN(c3nn4cc(-c5ccc(C)cc5)nc4s3)C2)cc1 (stereo not given) | -17.5%
COc1ccc(N2CCN(C(CNC(=O)c3c(F)cccc3F)c3ccc4c(c3)OCO4)CC2)cc1 (stereo not given) | 15%
CCOC(=O)c1cc2c(=O)n3ccccc3nc2n(CC2CCCO2)c1=NC(=O)c1ccccc1OCC (stereo not given) | 11.8%
Cc1ccc(-n2nc(C(=O)N3CCN(c4cc(C)ccc4C)CC3)c3c4ccccc4n(C)c3c2=O)cc1 | -4.51%
Cc1ccc(-n2c(N)cc(=O)nc2SCC(=O)N2CCN(c3ccccc3)CC2)cc1 | active: 63.6%
Cc1c(NC(=O)C(C)(C)C)cccc1-c1nc2ccccc2s1 | 6.17%
CC1Cc2cc(S(=O)(=O)CCC(=O)Nc3ccc(F)cc3Cl)ccc2N1C(=O)C1CC1 (stereo not given) | -0.691%
Cn1cc(S(=O)(=O)N2CCc3ccccc32)cc1C(=O)Nc1ccc(C(F)(F)F)cc1 | 0.494%
CCOc1ccccc1NC(=O)Cn1c(=O)n(-c2ccc(Cl)cc2)c(=O)c2oc3ccccc3c21 | 17.8%
CCN(CC)c1ccc(NC(=O)Cn2cc3c(n2)CCCC3)c(C)c1 | -13.2%
CCc1ccc(NC(=O)CSc2nc3c([nH]c4ccccc43)c(=O)n2C)cc1 | -25.5%
COc1cccc(CN2CCCN(Cc3ccc(F)cc3)S2(=O)=O)c1 | 8.77%
CCCOc1ccc(C(=O)Nc2cc(-c3nc4ccccc4[nH]3)ccc2C)cc1 | 1.6%
CN(CCOc1ccccc1)CC(=O)Nc1ccc(Br)cc1F | active: 52.9%
COc1ccc(OC)c(CN2CCN(C(=O)c3ccco3)CC2)c1 | active: 83%
Cc1ccccc1OCC(=O)Nc1nnc(SCc2cc(=O)n3cccc(C)c3n2)s1 | -5.95%
COc1ccc(C)cc1NC(=O)C1CCN(S(=O)(=O)Cc2ccccc2)CC1 | 5.68%

SMILES | inhibition
Cc1ccc(O)c(NC(=O)C2=CC(c3cccs3)=NS(=O)(=O)N2C)c1 | 5.34%
COc1cccc(CNC(=O)c2cc3cc(C)ccc3n2C)c1 | 4.38%
CC(C)n1c(SCC(=O)c2ccc(F)cc2)nc2c(sc3ccccc32)c1=O | -2.14%
COc1ccccc1OCCCn1c(C2CC(=O)N(c3ccc(F)cc3)C2)nc2ccccc21 (stereo not given) | -6.64%
S=C(Nc1ccc2c(c1)OCO2)NC1CCN(Cc2ccccc2)CC1 | active: 58.9%
Cc1cccc2nc(Cn3c(=O)n(-c4ccccc4)c(=O)c4c5c(sc43)CCC5)cc(=O)n12 | -8.07%
COc1ccc(CCNC(=O)c2c(Nc3ccccc3C)sc(C(=O)c3ccccc3)c2N)cc1OC | -12.7%
CCCCC(CC)CNC(=O)c1ccc(Cn2c(=O)[nH]c3cc(OC)c(OC)cc3c2=O)cc1 (stereo not given) | 5%
CCOc1ccccc1NC(=O)CSc1nnc(CC)c(CC)n1 | 7.27%
CCN1c2ccccc2-c2nc(SCC(=O)Nc3cc(OC)cc(OC)c3)ncc2S1(=O)=O | 10.6%
COc1ccc(-c2nn(C)c3sc(C(=O)Nc4cc(OC)c(OC)c(OC)c4)cc23)cc1OC | 6.62%
CCCN(C(=O)c1c(C)oc2ncn(CC(C)C)c(=O)c12)c1ccccc1C | -7.24%
CCOc1ccc(-c2nnc(SCC(=O)NCc3ccccc3)nc2-c2ccc(OCC)c(OC)c2)cc1OC | 16%
CCc1ccc(C2CC(=O)Nc3c2c(C)nn3-c2nc(C)cc(C)n2)cc1 (stereo not given) | -0.272%
CCOc1ccccc1NC(=O)N1CCN(Cc2nc3ccc(C)cc3o2)CC1 | -3.4%
Cc1ccc(C)c(N2CCN(S(=O)(=O)c3c(C)nc4sccn4c3=O)CC2)c1 | 26.9%
CCOc1ccccc1NC(=O)Cn1cnc2sc(C)c(S(=O)(=O)N3CCC(C)CC3)c2c1=O | -7.05%
COc1cccc(Nc2c3c(nc4nncn24)CCC3)c1 | 2.84%
Cc1cc(C)cc(-n2c(SCC(N)=O)nc3c(oc4ccccc43)c2=O)c1 | -0.199%
CCCCOc1cccc(C(=O)Nc2ccc3oc(-c4cccnc4)nc3c2)c1 | 7.93%
Cc1ccc(NC(=O)C2OCCc3ccccc32)cc1C (stereo not given) | active: 41.5%
CCc1cccc(NC(=O)CCS(=O)(=O)c2cc(Br)cc3c2N(C(C)=O)CC3)c1 | -4.86%
O=C(CSc1nc2ccccc2nc1Cc1ccccc1)N1CCCCC1 | 2.19%
COc1cc(OC)cc(C(=O)Nc2ccc3c(c2)N(C2CCCC2)C(=O)c2ccccc2S3)c1 | -4.34%

SMILES | inhibition
O=C(NCc1ccccc1Cl)c1cc2ccccc2o1 | 13.2%
COc1cc(-c2nc3ncccn3c2Nc2ccc(C)cc2C)ccc1O | 0.608%
COc1ccc(C(=O)Nc2nnc(S(=O)(=O)N(C)c3ccc(Cl)cc3)s2)cc1OC | -6.4%
Cc1ccccc1CNC(=O)C(=O)NCC(c1ccco1)S(=O)(=O)c1ccccc1 (stereo not given) | 10.1%
CCCS(=O)(=O)N1CCCC(C(=O)NCCCOC)C1 (stereo not given) | 10.9%
Cc1ccc(CCNC(=O)c2cn(C)c3ccc(S(=O)(=O)N4CCCCC4)cc3c2=O)cc1 | 8.29%
Cc1ccc2[nH]c(CSc3nnc(NC(=O)c4ccccc4C)s3)cc(=O)c2c1 | 13%
O=C(O)c1csc(-n2nc(-c3ccccc3)cc2C(F)(F)F)n1 | active: 47.9%
CCC(=O)NCC(c1ccc2c(c1)OCO2)N1CCN(c2ccccc2)CC1 (stereo not given) | 25.5%
COc1ccc(N2CCN(C(=O)CCc3c(C)nc4cc(-c5ccc(Cl)cc5)nn4c3C)CC2)cc1 | -14.4%
Cc1nc2ccccc2c(=O)n1-c1ccc(NC(=O)c2ccc([N+](=O)[O-])cc2)cc1 | -25.1%
COc1ccc(-c2[nH]nc3nc(-c4cc(OC)c(OC)c(OC)c4)cc(C(=O)O)c23)cc1 | -4.59%
CCOc1ccc(NCc2cccn2-c2nnc(N3CCC(C(=O)NCCc4ccc(OC)c(OC)c4)CC3)s2)cc1 | -21.1%
CC1=C(c2ccc(C)c(C)c2)S(=O)(=O)N=C1N1CCC(C(=O)NCCc2ccco2)CC1 | -3.82%
CS(=O)(=O)N1CCc2cc(C(=O)NCCc3ccccc3)ccc21 | -6.15%
Cc1ccc(-c2cc(C(=O)N3CCN(S(=O)(=O)c4ccc(Br)cc4)CC3)[nH]n2)cc1C | 2.7%
COC(=O)CS(=O)(=O)c1nc2ccccc2nc1N1CCCCC1 | -23.6%
COc1ccccc1N1CCN(C(=O)c2cc3c(-c4ccc(Cl)cc4)nn(C)c3s2)CC1 | active: 31%
CC(C)CCNC(=O)Nc1ccc2c(c1)N(C)C(=O)c1ccccc1S2 | 20.1%
COCCCNc1ncnc2onc(-c3ccc(F)cc3)c12 | -23.4%
COCCCNC(=O)CN1C(=O)COc2ccc(S(=O)(=O)N3CCCC3)cc21 | 8.7%
Cc1n[nH]c(C)c1S(=O)(=O)N(CC(=O)NC(C)c1ccccc1)c1ccc(C(C)C)cc1 (stereo not given) | 3.13%
Cc1ccc(NC(=O)Cn2c(=O)c3cc(Cl)ccc3n3nncc23)cc1 | -8.25%
